In all, about 33,000 sequences were measured (“E-score (-0.5 to 0.5)”: median about -0.035, highest 2% from about 0.34 on). The list shows a part of the results.
Each sequence was assayed against T1, Mot3 (UniProt P54785) (assay: PBM E-score (8-mer binding enrichment) (E-score (-0.5 to 0.5)); higher = stronger / more preferred TF binding; most listed sequences are background and not binding sites). Settings: protein concentration: 200 nM; construct: GST-full length.
T1 sequence: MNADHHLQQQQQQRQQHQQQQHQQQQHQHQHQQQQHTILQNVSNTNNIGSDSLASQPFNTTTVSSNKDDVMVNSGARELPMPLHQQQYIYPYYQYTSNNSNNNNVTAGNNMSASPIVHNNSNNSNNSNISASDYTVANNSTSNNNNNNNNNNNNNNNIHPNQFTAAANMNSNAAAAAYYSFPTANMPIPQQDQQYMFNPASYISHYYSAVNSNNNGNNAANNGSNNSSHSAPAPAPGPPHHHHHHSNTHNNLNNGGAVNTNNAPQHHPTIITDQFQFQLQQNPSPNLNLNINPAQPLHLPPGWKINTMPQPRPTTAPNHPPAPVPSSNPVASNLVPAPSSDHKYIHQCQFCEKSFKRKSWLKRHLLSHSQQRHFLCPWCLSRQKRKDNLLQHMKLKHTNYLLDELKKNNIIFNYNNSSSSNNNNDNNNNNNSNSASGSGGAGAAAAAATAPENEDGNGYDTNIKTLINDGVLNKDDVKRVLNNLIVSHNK
Procedure, shortened: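 The E-score, a modified Wilcoxon-Mann-Whitney statistic, was computed by the Universal PBM Analysis Suite for every ungapped eight-base word pooled with its reverse complement. Scans behind it were normalised with masliner after bound GST-tagged yeast transcription factors were detected with fluorescent anti-GST. The proteins, at about 100-200 nM, had been applied to universal all-10-mer Agilent arrays made double-stranded by primer extension.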

Point of comparison: ACGGTGAG, “PBM E-score” value -0.142. Against it:
- ATCATGAC — higher, 0.143
- AATAGACC — lower, -0.239
- GATGTCAC — higher, -0.0418
- ACCGTAAT — higher, -0.0455
- ACAAGCGG — higher, 0.249
- CGTTTCCC — lower, -0.217
- CCTACTCA — higher, -0.046
- GGATAACC — lower, -0.143
- CTCGAGAG — lower, -0.177
- AAGTTATC — higher, 0.0688
- TGAACTAA — higher, 0.0207
- AATGTACC — higher, 0.105
- AGCCCCTA — lower, -0.269
- GAGGCCCA — lower, -0.276
- ACAGTGAA — higher, 0.046
- GACCTGAC — lower, -0.194
- AGAGGGCG — higher, -0.133
- GTAGGAGA — lower, -0.184
- AAAGACAG — higher, 0.141
- GGCATAAA — higher, -0.108
- CCCAGTAG — higher, -0.042
- AAGCGGAG — higher, 0.0428
- CCCATCTC — lower, -0.269
- CTCCGTAA — higher, 0.0286
- CGCGACAG — higher, -0.0952
- CGCACAGA — higher, -0.0875
- CCTCTGAG — higher, -0.00393
- TACCGCAA — higher, 0.119
- CCCCCAAA — lower, -0.183
- ACATCCCC — higher, -0.00997
- ATGCCCCG — lower, -0.323
- AGAAACGA — higher, 0.0178
- ACACGTTG — higher, 0.305
- GAGATCGC — higher, -0.0212
- CCATGGTA — higher, -0.0768
- CATCCTGA — higher, 0.0269
- CGAGACTA — higher, -0.0793
- CGCTTGGC — higher, -0.0702
- AGTTTAAC — higher, 0.0654
- GATGCGGC — lower, -0.145
- CGGACCTC — lower, -0.389
- GCTATAGA — lower, -0.197
- CCGGAGTC — lower, -0.231
- CTGCCTGC — higher, 0.336
- CACCCCTA — lower, -0.314
- AGTAGACC — lower, -0.3
- GTAGCCCA — higher, -0.122
- AGCCTGGC — higher, -0.0899
- CGGAACGC — higher, -0.0837
- GCAGGGGA — lower, -0.253
- AATCTCTA — higher, -0.0669
- CGTTGCAA — higher, 0.0242
- ATACCCTA — higher, -0.062
- CTGTATCC — higher, -0.115
- CAAGCTCG — higher, -0.0504
- CCGTTGGC — lower, -0.181
- ATAAACGC — higher, 0.0644
- GCTAAGAC — higher, -0.121
- CAATATGA — higher, 0.0247
- CACCGCCG — lower, -0.175
- AGCCATGG — lower, -0.166
- AACGGCTT — lower, -0.247
- GCAGGTGA — higher, -0.0497
- CTCATGTC — higher, 0.191
- CAGATGAG — higher, -0.0581
- ATCGGTTC — higher, 0.0968
- AGCCTTCC — higher, -0.137
- TACGGCTA — lower, -0.247
- CTAGGGCC — higher, -0.139
- CCGATCAC — higher, -0.0956
- CGTGGGGA — lower, -0.145
- AGGGCCAT — lower, -0.295
- AGCCCTGC — lower, -0.187
- GTTCGTCA — higher, -0.106
- TAAACCGA — higher, 0.0216
- CAGACGCG — higher, -0.0957
- AGCTCCGA — higher, -0.14
- CGGGCCCG — lower, -0.192
- CCGCTAAG — lower, -0.146
- AGTAGATG — higher, -0.0168
- CAGGCCAC — higher, 0.288
- AGCACGCG — higher, 0.17
- AGCTTGGC — lower, -0.158
- ACTCATTG — higher, 0.0532
- GGGAGTAA — higher, -7e-05
